Experimental data as given in the supplement of paper PMC12217912.
This is one part of the list. Sequences were assembled here from the parent chain. Values near 0.05 are background.

B1: TEV protease; numbered along this chain (parent)
chain: MGESLFKGPRDYNPISSSICHLTNESDGHTTSLYGIGFGPFIITNKHLFRRNNGTLVVQSLHGVFKVKDTTTLQQHLVDGRDMIIIRMPKDFPPFPQKLKFREPQREERICLVTTNFQTKSMSSMVSDTSCTFPSGDGIFWKHWIQTKDGQCGSPLVSTRDGFIVGIHSASNFTNTNNYFTSVPKNFMELLTNQEAQQWVSGWRLNADSVLWGGHKVFMVKPEEPFQPVKEATQL

Variants of: B1
Assay: raw area under fraction-flipped curve 0-4 h after induction (AUC4h, not background-subtracted), DNA-recorder readout of cleavage of the substrate (dimensionless); higher = more cleavage of the substrate by the protease variant
Conditions: temperature: 34 °C; time window: 0-4 h after rhamnose induction
Method: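 In vivo DNA recorder in E. coli TOP10(DE3) ΔrhaA at 34 °C. Each TEVp single-site mutant (parent TEVp 0) is paired with a single-site variant of the 7-mer TEVs (canonical ENLYFQ|S). The substrate sits between flexible linkers in a Bxb1-sfGFP-TEVs-SsrA fusion, so cleavage stabilises Bxb1 and speeds flipping of a recombination array, read by NGS. The value is the raw area under the fraction-flipped curve over 0-4 h after rhamnose induction (AUC4h), with ≥20 reads per time point. It is not background-subtracted; inactive controls average about 0.047.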
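Also: Bxb1 expression induced with 0.2% (w/v) L-rhamnose at OD600 near 0.5, cultures sampled hourly, flipped fraction per protease–substrate barcode pair counted by paired-end Illumina sequencing.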

In the case of MGESLFKGPRDYNPISSSICHLTNESDGHTTSLYGQGFGPFIITNKHLFRRNNGTLVVQSLHGVFKVKDTTTLQQHLVDGRDMIIIRMPKDFPPFPQKLKFREPQREERICLVTTNFQTKSMSSMVSDTSCTFPSGDGIFWKHWIQTKDGQCGSPLVSTRDGFIVGIHSASNFTNTNNYFTSVPKNFMELLTNQEAQQWVSGWRLNADSVLWGGHKVFMVKPEEPFQPVKEATQL [I36Q], the “area with substrate CNLYFQS” value is reported as 0.0363, the “area with substrate DNLYFQS” value is reported as 0.0541 and the “area with substrate GNLYFQS” value is reported as 0.0422. For the same variant, the “area with substrate INLYFQS” value was 0.0303, the “area with substrate KNLYFQS” value was 0.0496 and the “area with substrate LNLYFQS” value was 0.0549. The “area with substrate MNLYFQS” value was 0.068, the “area with substrate NNLYFQS” value was 0.0376 and the “area with substrate PNLYFQS” value was 0.0638. The “area with substrate RNLYFQS” value was 0.05, the “area with substrate VNLYFQS” value was 0.066 and the “area with substrate WNLYFQS” value was 0.0538. The “area with substrate YNLYFQS” value was 0.0476.

For MGESLFKGPRDYNPISSSICHLTNESDGHTTSLYGIGFCPFIITNKHLFRRNNGTLVVQSLHGVFKVKDTTTLQQHLVDGRDMIIIRMPKDFPPFPQKLKFREPQREERICLVTTNFQTKSMSSMVSDTSCTFPSGDGIFWKHWIQTKDGQCGSPLVSTRDGFIVGIHSASNFTNTNNYFTSVPKNFMELLTNQEAQQWVSGWRLNADSVLWGGHKVFMVKPEEPFQPVKEATQL [G39C], the “area with substrate CNLYFQS” value was 0.0505, the “area with substrate DNLYFQS” value was 0.0534 and the “area with substrate FNLYFQS” value was 0.0399. The “area with substrate GNLYFQS” value was 0.0417, the “area with substrate HNLYFQS” value was 0.0532 and the “area with substrate INLYFQS” value was 0.0486. The “area with substrate LNLYFQS” value was 0.0463, the “area with substrate MNLYFQS” value was 0.0461 and the “area with substrate NNLYFQS” value was 0.0358. For the same variant, the “area with substrate PNLYFQS” value was 0.0407, the “area with substrate QNLYFQS” value was 0.0052 and the “area with substrate TNLYFQS” value was 0.051. For the same variant, the “area with substrate VNLYFQS” value was 0.0355 and the “area with substrate WNLYFQS” value was 0.0369.

With MGESLFKGPRDYNPISSSICHLTNESDGHTTSLYGIGFTPFIITNKHLFRRNNGTLVVQSLHGVFKVKDTTTLQQHLVDGRDMIIIRMPKDFPPFPQKLKFREPQREERICLVTTNFQTKSMSSMVSDTSCTFPSGDGIFWKHWIQTKDGQCGSPLVSTRDGFIVGIHSASNFTNTNNYFTSVPKNFMELLTNQEAQQWVSGWRLNADSVLWGGHKVFMVKPEEPFQPVKEATQL [G39T] the “area with substrate CNLYFQS” value was 0.0539, the “area with substrate DNLYFQS” value was 0.0576 and the “area with substrate GNLYFQS” value was 0.0466. For the same variant, the “area with substrate HNLYFQS” value was 0.042, the “area with substrate KNLYFQS” value was 0.0415 and the “area with substrate LNLYFQS” value was 0.0419. The “area with substrate MNLYFQS” value was 0.0393, the “area with substrate NNLYFQS” value was 0.038 and the “area with substrate PNLYFQS” value was 0.04. The “area with substrate RNLYFQS” value was 0.0294, the “area with substrate TNLYFQS” value was 0.048 and the “area with substrate VNLYFQS” value was 0.0375. For the same variant, the “area with substrate WNLYFQS” value was 0.0328 and the “area with substrate YNLYFQS” value was 0.0429.

For MGESLFKGPRDYNPISSSICHLTNESDGHTTSLYGIGFHPFIITNKHLFRRNNGTLVVQSLHGVFKVKDTTTLQQHLVDGRDMIIIRMPKDFPPFPQKLKFREPQREERICLVTTNFQTKSMSSMVSDTSCTFPSGDGIFWKHWIQTKDGQCGSPLVSTRDGFIVGIHSASNFTNTNNYFTSVPKNFMELLTNQEAQQWVSGWRLNADSVLWGGHKVFMVKPEEPFQPVKEATQL [G39H], the “area with substrate CNLYFQS” value was 0.0471, the “area with substrate DNLYFQS” value was 0.0479 and the “area with substrate FNLYFQS” value was 0.0418. The “area with substrate GNLYFQS” value was 0.0476, the “area with substrate HNLYFQS” value was 0.0477 and the “area with substrate KNLYFQS” value was 0.0408. The “area with substrate LNLYFQS” value was 0.0456, the “area with substrate MNLYFQS” value was 0.0501 and the “area with substrate NNLYFQS” value was 0.042. For the same variant, the “area with substrate PNLYFQS” value was 0.0379, the “area with substrate SNLYFQS” value was 0.0482 and the “area with substrate TNLYFQS” value was 0.0453. The “area with substrate WNLYFQS” value was 0.0398 and the “area with substrate YNLYFQS” value was 0.0495.

For MGESLFKGPRDYNPISSSICHLTNESDGHTTSLYGIGFNPFIITNKHLFRRNNGTLVVQSLHGVFKVKDTTTLQQHLVDGRDMIIIRMPKDFPPFPQKLKFREPQREERICLVTTNFQTKSMSSMVSDTSCTFPSGDGIFWKHWIQTKDGQCGSPLVSTRDGFIVGIHSASNFTNTNNYFTSVPKNFMELLTNQEAQQWVSGWRLNADSVLWGGHKVFMVKPEEPFQPVKEATQL [G39N], the “area with substrate CNLYFQS” value was 0.0436, the “area with substrate DNLYFQS” value was 0.0451 and the “area with substrate FNLYFQS” value was 0.047. For the same variant, the “area with substrate GNLYFQS” value was 0.0402, the “area with substrate INLYFQS” value was 0.0316 and the “area with substrate KNLYFQS” value was 0.0289. The “area with substrate MNLYFQS” value was 0.0439, the “area with substrate PNLYFQS” value was 0.0484 and the “area with substrate SNLYFQS” value was 0.0613. For the same variant, the “area with substrate TNLYFQS” value was 0.0293, the “area with substrate WNLYFQS” value was 0.0381 and the “area with substrate YNLYFQS” value was 0.0277.

For MGESLFKGPRDYNPISSSICHLTNESDGHTTSLYGIGTGPFIITNKHLFRRNNGTLVVQSLHGVFKVKDTTTLQQHLVDGRDMIIIRMPKDFPPFPQKLKFREPQREERICLVTTNFQTKSMSSMVSDTSCTFPSGDGIFWKHWIQTKDGQCGSPLVSTRDGFIVGIHSASNFTNTNNYFTSVPKNFMELLTNQEAQQWVSGWRLNADSVLWGGHKVFMVKPEEPFQPVKEATQL [F38T], the “area with substrate CNLYFQS” value was 0.0553, the “area with substrate DNLYFQS” value was 0.0641 and the “area with substrate GNLYFQS” value was 0.0548. The “area with substrate HNLYFQS” value was 0.063, the “area with substrate INLYFQS” value was 0.0582 and the “area with substrate KNLYFQS” value was 0.0548. For the same variant, the “area with substrate MNLYFQS” value was 0.0485, the “area with substrate PNLYFQS” value was 0.064 and the “area with substrate QNLYFQS” value was 0.0565. For the same variant, the “area with substrate RNLYFQS” value was 0.072, the “area with substrate TNLYFQS” value was 0.0547 and the “area with substrate VNLYFQS” value was 0.041. The “area with substrate WNLYFQS” value was 0.0628 and the “area with substrate YNLYFQS” value was 0.0713.

With MGESLFKGPRDYNPISSSICHLTNESDGHTTSLYGIGNGPFIITNKHLFRRNNGTLVVQSLHGVFKVKDTTTLQQHLVDGRDMIIIRMPKDFPPFPQKLKFREPQREERICLVTTNFQTKSMSSMVSDTSCTFPSGDGIFWKHWIQTKDGQCGSPLVSTRDGFIVGIHSASNFTNTNNYFTSVPKNFMELLTNQEAQQWVSGWRLNADSVLWGGHKVFMVKPEEPFQPVKEATQL [F38N] the “area with substrate CNLYFQS” value was 0.0587, the “area with substrate DNLYFQS” value was 0.124 and the “area with substrate GNLYFQS” value was 0.0489. The “area with substrate INLYFQS” value was 0.0549, the “area with substrate LNLYFQS” value was 0.0539 and the “area with substrate PNLYFQS” value was 0.0447. For the same variant, the “area with substrate SNLYFQS” value was 0.0537, the “area with substrate TNLYFQS” value was 0.0543 and the “area with substrate VNLYFQS” value was 0.0495. The “area with substrate WNLYFQS” value was 0.0602.

With MGESLFKGPRDYNPISSSICHLTNESDGHTTSLYGIGGGPFIITNKHLFRRNNGTLVVQSLHGVFKVKDTTTLQQHLVDGRDMIIIRMPKDFPPFPQKLKFREPQREERICLVTTNFQTKSMSSMVSDTSCTFPSGDGIFWKHWIQTKDGQCGSPLVSTRDGFIVGIHSASNFTNTNNYFTSVPKNFMELLTNQEAQQWVSGWRLNADSVLWGGHKVFMVKPEEPFQPVKEATQL [F38G] the “area with substrate CNLYFQS” value was 0.028, the “area with substrate DNLYFQS” value was 0.0527 and the “area with substrate INLYFQS” value was 0.0287. For the same variant, the “area with substrate NNLYFQS” value was 0.0352 and the “area with substrate WNLYFQS” value was 0.0295.

In the case of MGESLFKGPRDYNPISSSICHLTNESDGHTTSLYGIGFGPFIIENKHLFRRNNGTLVVQSLHGVFKVKDTTTLQQHLVDGRDMIIIRMPKDFPPFPQKLKFREPQREERICLVTTNFQTKSMSSMVSDTSCTFPSGDGIFWKHWIQTKDGQCGSPLVSTRDGFIVGIHSASNFTNTNNYFTSVPKNFMELLTNQEAQQWVSGWRLNADSVLWGGHKVFMVKPEEPFQPVKEATQL [T44E], the “area with substrate CNLYFQS” value is reported as 0.0462, the “area with substrate DNLYFQS” value is reported as 0.0398 and the “area with substrate FNLYFQS” value is reported as 0.0477. For the same variant, the “area with substrate HNLYFQS” value was 0.0461, the “area with substrate KNLYFQS” value was 0.0463 and the “area with substrate LNLYFQS” value was 0.0433. For the same variant, the “area with substrate PNLYFQS” value was 0.0228, the “area with substrate QNLYFQS” value was 0.0433 and the “area with substrate RNLYFQS” value was 0.0347. The “area with substrate TNLYFQS” value was 0.0617, the “area with substrate VNLYFQS” value was 0.0459 and the “area with substrate YNLYFQS” value was 0.0396.
